Data published in ChEMBL document CHEMBL4888484, “Replenishing the malaria drug discovery pipeline: Screening and hit evaluation of the MMV Hit Generation Library 1 (HGL1) against asexual blood stage Plasmodium falciparum ,using a nano luciferase reporter read-out” (2022).
Among all 4,800 compounds or so, about 410 (8.5%) showed an effect of 50% or more. The list shows a part of the results.

These molecules were tested on Plasmodium falciparum (assay: Confirmatory screen in NF54 pLDH assay, in single point, at 2uM, 72h). Details: timepoint 72 hour.
Type: functional, Erythrocyte

Structure (SMILES) | % Inhibition
Cc1cc(-c2ccccc2)nc(O)c1S(C)(=O)=O | 6%
COc1cc2c(cc1OC)C(Nc1cc(C)ccc1C)=NC(C)(C)C2 | -3%
CC1=NN(c2nc(C)cc(O)n2)C(=O)C1 | -6%
Cc1nc(CNC(=O)Nc2ccc(Br)c(C)n2)no1 | 11%
CN1CCN(S(=O)(=O)c2ccc(F)c(F)c2)C[C@H]1c1ccccc1 | 5%
CCCCN1C(=O)[C@H]2[C@H]([C@H](O)c3ccc(Cl)cc3)N[C@@]3(C(=O)Nc4ccccc43)[C@H]2C1=O | 1%
COc1ccc(CNc2ncc(-c3ccc(C)c(C)c3)n2C)cc1OCc1ccccc1 | -9%
CC1C(Cc2ccccc2)CCN1C(=O)c1cnc(C(F)(F)F)nc1 (stereo not drawn) | 14%
Cc1ccc(NC(=O)CN2CCC3(CC2)NC(c2ccc(OC(F)(F)F)cc2)=NO3)c(C)c1 | 1%
OC(CC1COCCN1)c1ccccc1 (stereo not drawn) | 11%
CCOC(=O)c1cc(-c2ccccc2)n(NC(=O)COc2ccc(Cl)cc2)c1C | -9%
O=C(CNc1ccccc1N1CCCCC1)NC1CCCCCC1 | -7%
Cc1ccc(-c2nn3c([C@H]4CCCN(C)C4)nnc3s2)cc1C | -8%
O=C(CN1CCC2(CC1)NC(=O)N(Cc1ccc(Cl)cc1)C2=O)Nc1ccc(F)cc1F | 8%
O=C(Nc1nc2ccccc2[nH]1)C1CCN(c2cc3c(nn2)CCC3)CC1 | 9%
c1ccc(-c2cn(-c3ccccc3)c3ncnc(N4CCCC4)c23)cc1 | 13%
Cc1ccccc1S(=O)(=O)N1CCN(c2c(C)n(-c3ccccc3)c(=O)n(C)c2=O)CC1 | 9%
CCN(C(=O)CCn1cnc2ccccc2c1=O)c1ccc2[nH]ccc2c1 | 5%
CC1CC(N)CCN1C(=O)c1cccc(-c2noc(C3CC3)n2)c1 (stereo not drawn) | -5%
O=C(c1cnc2ccc(F)cc2c1N1CCC(Cc2ccccc2)CC1)N1CCCC1 | 8%
O=C(NC1CCCC1)N1CCN(S(=O)(=O)c2cccc(F)c2)CC1 | 2%
Cc1cc(C)n(Cc2csc(C3CCCCC3)n2)n1 | -9%
C[C@@H](Cn1cc(Br)cn1)c1nnc(Nc2ccn(Cc3c(F)cccc3Cl)n2)s1 | 14%
COc1cc(CNCCN2CCOCC2)ccc1OCc1cccc(C)c1 | 7%
C1CN(c2nc3nonc3nc2N2CCOCC2)CCO1 | -4%
CNC(=O)Cc1c(Cl)cccc1Cl | 4%

Structure (SMILES) | % Inhibition
COc1ccccc1CNC(=O)c1cnn2c(-c3ccc(Cl)cc3)ccnc12 | 11%
CC(=O)N(c1ccccc1)[C@H]1C[C@@H](C)N(C(=O)C(F)(F)F)c2ccccc21 | 12%
CN([C@H]1CCc2ccccc21)S(=O)(=O)c1ccc2c(c1)CCC2 | 7%
CN(C(=O)c1ccc(OCC(F)(F)F)nc1)C1(C#N)CCC1 | 5%
COc1ccccc1N1CCN(c2nc(Nc3ccc(F)cc3)c3nc[nH]c3n2)CC1 | -14%
Cc1cnccc1NCCNC1CCN(c2ccc(Cl)cc2)CC1 | 96%
O=C(Nc1ccc2c(c1)OCO2)c1c(-c2ccc(Cl)cc2)nc2n1CCS2(=O)=O | 6%
O=C(Cc1ccccc1)Nc1c2c(nc3c1CCC3)CCCC2 | 8%
Cc1cc(-n2nnc3ccccc32)nc(C)n1 | 3%
CN(Cc1ccn(C)n1)C(=O)c1cc(S(=O)(=O)N(C)C)c(Cl)cc1Cl | 8%
Cc1c(S(=O)(=O)N2CCC[C@H](C(=O)NC3CC3)C2)cnn1C | 5%
Cc1cc(CNC(=O)Nc2cnn(-c3ncccc3C#N)c2)n(C)n1 | 7%
Oc1nc(N2CCOC3(CCCC3)C2)ncc1F | 53%
CC(C)[C@H](NC(=O)NCCc1ncnn1C)c1ccccc1Cl | 8%
COc1c(Cl)cc(Cl)cc1CNC(C)C | 10%
CNc1nc(NCc2ccccc2)nc2ccccc12 | 91%
COC(=O)[C@@H]1C[C@H](O)CCN1C(=O)OC(C)(C)C | 7%
CN(Cc1ccncc1)Cc1ccc2c(c1)CCO2 | -3%
O=C(CCc1ccc(F)cc1)Nc1nccc(-c2ccco2)n1 | 6%
COC(=O)c1ncn(CNC2(c3ccc(Cl)cc3)CCCC2)n1 | 9%
Cc1ccc(S(=O)(=O)N(CC(=O)NC2CCN(C)CC2)c2cccc(Cl)c2)cc1 | 2%
COc1ccc(O)c([C@H]2Nc3ccccc3-n3c(-c4ccc(C)cc4)c4c(=O)n(C)c(=O)n(C)c4c32)c1 | -2%
O=C(Cc1cnn(-c2ccccc2)c1)Nc1ccc2[nH]c(=O)[nH]c2c1 | 10%
Cc1nn(C)c2c(N3CCOCC3)nc(C3CC3)nc12 | 0%
Cc1cc(NC(=O)Cn2c(=O)n(CCc3ccccc3)c(=O)c3ccccc32)no1 | 13%
Cc1ccc(-c2ccc(=O)n(CCC(=O)N3CCN(C4CCCCC4)CC3)n2)cc1 | 0%

Structure (SMILES) | % Inhibition
Cc1ccc(C(=O)Nc2noc(-c3ccc(C)cc3)c2-c2ccccc2Cl)cc1 | -15%
COc1cc(-c2nc(-c3ccc(F)cc3)c(-c3ccc(F)cc3)[nH]2)cc2c1OCO2 | 5%
Cc1ccc(S(=O)(=O)c2c(NS(=O)(=O)c3ccccc3)n(CCc3ccccc3)c3nc4ccccc4nc23)cc1 | 102%
COc1ccc(S(=O)(=O)n2[nH]c(=O)c(CCO)c2C)cc1 | 15%
COc1ccc(CCNC(=O)c2cc3n(n2)CCN(Cc2cccc(F)c2)C3=O)cc1OC | 17%
C#CCOc1ccc2ccccc2c1[C@@H]1NC(=O)c2cccnc2N1 | 6%
CN(C)/C=C/c1c(C#N)c(=O)ncn1Cc1ccccc1 | 8%
O=C(C[C@H]1CCN(S(=O)(=O)c2ccc(F)c(F)c2)C1)NCc1ccccc1 | -18%
O=C(C[C@H]1CCN(C(=O)c2ccoc2)C1)NC1CC1 | -1%
O=C1c2ccccc2C(=O)N1Cc1cnc(N2CCCCC2)s1 | -1%
Cc1cc[n+]2c(-c3ccccc3)cc(-c3ccccc3)nc2c1 | 50%
CCOC[C@@H](O)CN(Cc1c(-c2ccccc2)noc1N1CCC(C)CC1)CC1CC1 | -9%
O=C(N[C@H](c1ccccc1)C1CCC1)N1CCOC2(CCC2)C1 | 4%
Cc1nnc(NC(=O)C(C)(C)S(=O)(=O)C2CC2)n1C1CC1 | 0%
C=CCN=C(NCc1nccn1C)NC1CCC(C)CC1 (stereo not drawn) | -4%
O=C(Nc1c(S(=O)(=O)c2ccccc2)c2nc3ccccc3nc2n1CCc1ccccc1)c1ccc(Cl)cc1 | 96%
O=C(O)[C@@H]1CCCN1c1ncc(C(F)(F)F)cc1Cl | 1%
CCOc1cc(=O)c(C(=O)N2CCC(C)CC2)nn1-c1cc(OC)cc(OC)c1 | 5%
Cc1ccc(C)c(-c2nc(Cn3c(=O)c4c(C)cc(C)nc4n(C)c3=O)c(C)o2)c1 | 3%
Cc1cccc(NC(=O)NCCn2nnc3cc(S(=O)(=O)N4CCCC4)ccc32)c1C | 12%
COc1ccc(CN2CCC(C(=O)NCCCN3CCOCC3)CC2)c(OC)c1 | 9%
COc1cccc(CNC(=O)c2sc(Nc3ccc(C)cc3C)nc2C)c1 | -18%
Cc1nc(-c2ccccc2)cc2nn(CC(=O)N3CCOCC3)c(=O)n12 | -17%
CC(C)Nc1nc2nonc2n2cnnc12 | 90%
CN(C)c1cc(C(=O)N2CCOC3CCCCC32)ccn1 (stereo not drawn) | 3%
Cc1ccc(NC(=O)COC(=O)c2ccc3c(c2)N=S=N3)cc1 | -24%

Structure (SMILES) | % Inhibition
O=C(Nc1ccc(Cl)cc1)n1c(=S)oc2cc(Br)ccc21 | 2%
Cc1nccn1-c1ncc(NC(=O)Nc2ccccc2)cn1 | 6%
O=C(Nc1cccc2cccnc12)c1ccccn1 | 87%
CCCCC1NC(=O)N([C@@H]2CCC(=O)N[C@H]2c2ccccc2)C1=O (stereo partly drawn) | 3%
CC(=O)c1ccc(S(=O)(=O)N2CCC(C)(C(=O)NCc3ccc4c(c3)OCO4)CC2)cc1 | 8%
O=S(=O)(c1ccc(F)c(Cl)c1)N1CC[C@H](Oc2ccncc2Cl)C1 | 89%
COc1ccccc1CNCCNC(=O)c1ccncc1 | 9%
O=C(O)c1cc(N2CCN(c3ccccc3F)CC2)ccc1NC(=O)C1CCC1 | 1%
CC1(C)CC[C@H](NC(=O)CCNc2ncccn2)c2ccccc21 | -3%
O=C(CNC(=O)c1ccc(Br)cc1)NC1CCCC1O (stereo not drawn) | 5%
CC[C@H](C)N(CCC(=O)N1CCOCC1)C(=O)c1cc2n(n1)CCCN(Cc1ccccc1)C2=O | 6%
CC(C)C(=O)NCC(=O)Nc1ccc(C(F)(F)F)cc1 | -16%
CN(C)c1ccc(-c2nc([C@H]3CCOC3)cs2)cc1 | 9%
O=C(Nc1ccc(F)cc1F)[C@@H]1CCCN1C(=O)c1ccco1 | 11%
C[C@H](NC(=O)CC1(C)CCCCC1)c1cnn(C)c1 | -5%
O=C1CN(CC[C@H]2CCCO2)CCN1c1cccs1 | -10%
Cc1ccc(CN2CCC3(CC2)C[C@@H](C(=O)NCc2ccccn2)N(C)C3)s1 | 10%
CCC(=O)N(Cc1ccc(-c2ccc(Cl)cc2)o1)[C@H]1CCS(=O)(=O)C1 | 42%
O=C1CN(C(=O)Cn2c(-c3ccccc3)cc3ccccc32)c2ccccc2N1 | 11%
O=C1CC(C(=O)N2CCOCC2)C(c2ccc3c(c2)OCCO3)O1 (stereo not drawn) | 11%
NC[C@H]1CN(CCc2cccc(Cl)c2)C(=O)O1 | -13%
COc1cc(CN(C)[C@H]2CCc3nnc(C4CCOCC4)n3CC2)cc(OC)c1 | 1%
O=S(=O)(Cc1cc(Cl)cc(Cl)c1)NCCCCn1ccnc1 | -11%
O=C(CN1CCN(c2ccccc2F)CC1)c1ccc2c(c1)OCO2 | 7%
O=C1CC(c2cccc(Br)c2)N(S(=O)Oc2ccccc2)c2ccccc21 (stereo not drawn) | 1%
